The least precise scores are not listed. Not listed are two conditions whose scores span a narrow range. In variant names, del marks residues removed and ins residues inserted between the two positions. For part of these data: How much ogerin was present is not stated here.
B1: GPR68, Q15743 (parent)
chain: MGNITADNSSMSCTIDHTIHQTLAPVVYVTVLVVGFPANCLSLYFGYLQIKARNELGVYLCNLTVADLFYICSLPFWLQYVLQHDNWSHGDLSCQVCGILLYENIYISVGFLCCISVDRYLAVAHPFRFHQFRTLKAAVGVSVVIWAKELLTSIYFLMHEEVIEDENQHRVCFEHYPIQAWQRAINYYRFLVGFLFPICLLLASYQGILRAVRRSHGTQKSRKDQIQRLVLSTVVIFLACFLPYHVLLLVRSVWEASCDFAKGVFNAYHFSLLLTSFNCVADPVLYCFVSETTHRDLARLRGACLAFLTCSRTGRAREAYPLGAPEASGKSGAQGEEPELLTKLHPAFQTPNSPGSGGFPTGRLA

What was measured:
[1] = variants of: B1; test: cAMP reporter score (Enrich2 score, wild type = 0); higher = more signal; HEK293T, FACS bins
[2] = variants of: B1; test: surface expression score (Enrich2 score, wild type = 0); higher = more signal; HEK293T, FACS bins

Variant | cAMP reporter score ([1]; pH 5.5) | cAMP reporter score ([1]; pH 6) | cAMP reporter score ([1]; pH 6, modulator: ogerin) | cAMP reporter score ([1]; pH 6.5, modulator: ogerin) | surface expression score [2]
A211M | -0.537 | -0.99 | -1.15 | -0.601 | -0.982
A211N | -1.11 | -0.782 | -0.503 | -1.2 | -0.582
A211P | -0.554 | -1.65 | -0.671 | -1.3 | -0.863
A211Q | 0.902 | 1.24 | 0.937 | -0.299 | –
A211R | -1.29 | -0.566 | – | -0.465 | 0.026
A211S | 0.519 | -0.674 | 0.328 | -0.272 | -0.833
A211T | -0.136 | -0.366 | -0.354 | -0.75 | -0.576
A211V | -0.62 | -0.18 | -0.591 | -0.515 | -0.587
A211Y | -0.488 | -0.048 | -0.788 | -0.837 | -1.08
A211_V212del | -1.69 | -0.692 | -1.32 | -0.859 | -0.336
A211_V212insG | -1.01 | -1.62 | – | -2.37 | 0.146
V212_R213insGSG | -1.93 | -1.54 | -1.56 | -0.428 | -0.252
V212_R214del | -1.35 | -1.32 | -1.67 | -1.4 | -0.115
R213_R214del | -1.36 | -1.63 | -1.83 | -0.996 | -0.347
R213_R214insGS | -1.45 | -1.04 | -1.4 | -0.686 | 0.632
R214_S215insG | -1.23 | -0.758 | -0.674 | -1.29 | 0.959
R214_S215insGS | -1.2 | – | -1.14 | -0.874 | 1.23
S215A | -0.738 | -0.583 | -1.73 | -1.14 | 0.005
S215C | -0.985 | -1.03 | -1.53 | -1.36 | 0.693
S215D | -0.513 | -0.649 | -0.989 | -0.059 | 0.734
S215E | 1.02 | – | 1.15 | 2.32 | –
S215F | -1.49 | -1.18 | -1.89 | -1.46 | -1.53

Variant | cAMP reporter score ([1]; pH 5.5) | cAMP reporter score ([1]; pH 6) | cAMP reporter score ([1]; pH 6, modulator: ogerin) | cAMP reporter score ([1]; pH 6.5, modulator: ogerin) | surface expression score [2]
S215G | -1.17 | -0.966 | – | -0.724 | 1.15
S215H | -0.759 | -0.368 | -0.709 | -0.092 | 0.811
S215I | -0.981 | -0.265 | -1.22 | -1.42 | -0.736
S215K | -1.5 | -1.19 | -1.59 | -1.77 | 1.11
S215L | -0.214 | – | -1.44 | -1.66 | 0.551
S215M | -0.451 | -1.23 | -0.224 | 0.164 | -0.008
S215N | -0.685 | -1.05 | -1.35 | -1.07 | 1.02
S215P | -0.857 | -0.894 | -2.1 | -0.993 | 0.228
S215Q | -1.51 | -1.03 | -1.84 | -0.731 | 0.47
S215R | -1.88 | -1.26 | -2.08 | -1.41 | 0.231
S215T | -0.705 | – | – | -1.57 | 0.406
S215V | -1.02 | -0.96 | -2.01 | -1.22 | -0.239
S215W | -1.48 | -1.08 | -1.34 | -1.48 | -0.062
S215Y | -1.37 | -1.58 | -1.45 | -1.09 | -0.225
S215_H216del | -1.47 | -1.24 | -1.57 | -0.747 | -0.328
S215_H216insG | -0.671 | – | -1.6 | -1.84 | –
S215_H216insGSG | -1.03 | -0.926 | -1.25 | -1.23 | 0.727
H216_G217del | -1.34 | -0.721 | -0.486 | -0.72 | -0.099
H216_G217insG | -0.379 | – | -0.624 | -2.7 | 1.99
H216_G217insGSG | -1.17 | – | -0.189 | -1.19 | 0.628
G217_Q219del | -1.05 | -1.15 | -2.65 | -0.512 | -0.681
G217_T218del | -1.55 | -1.65 | -1.4 | -1.72 | -0.609

Variant | cAMP reporter score ([1]; pH 5.5) | cAMP reporter score ([1]; pH 6) | cAMP reporter score ([1]; pH 6, modulator: ogerin) | cAMP reporter score ([1]; pH 6.5, modulator: ogerin) | surface expression score [2]
G217del | 0.856 | – | -0.158 | 1.26 | 0.26
T218_K220del | -0.266 | -1.22 | -1.52 | -0.734 | 0.385
T218_Q219insGS | -0.98 | -0.133 | -0.624 | -2.15 | 1.39
Q219del | -1.38 | -1.7 | -1.58 | -1.37 | -0.639
K220A | 0.957 | 0.218 | -0.018 | 0.981 | 1.26
K220C | -1.16 | -0.641 | -1.28 | -1.3 | -0.97
K220D | 0.157 | -0.269 | -0.677 | – | –
K220F | -0.414 | -1.01 | -0.971 | -1.08 | 0.883
K220G | 0.149 | – | -1.03 | – | 0.505
K220H | 0.013 | – | – | -0.124 | 0.333
K220I | -0.105 | -1.09 | -0.728 | -0.905 | -0.423
K220L | 0.027 | 0.094 | -0.746 | -1.23 | 0.047
K220M | -0.422 | – | -0.663 | -0.715 | 0.52
K220N | -1.11 | -0.966 | -0.682 | -1.91 | -0.274
K220P | -0.253 | -0.93 | 0.391 | -0.363 | 0.478
K220Q | 0.858 | 0.46 | – | – | 0.383
K220R | 0.52 | 0.007 | – | -1.01 | 0.952
K220S | -0.005 | – | -2.18 | 0.354 | -1.03
K220T | -0.571 | -1.46 | -0.565 | -0.867 | 0.493
K220V | 0.519 | -0.977 | -0.587 | -1.37 | -0.128

From the GPR68 mutational scans of Howard et al. (2025)
